Screen size: about 150,000 compounds; about 540 (0.36%) showed an effect of 50% or more. Some of the results follow.
These compounds were tested on Plasmodium falciparum (assay: Primary screen in NF54 nanoGlo assay, in single point, at 2uM, 72h; a lower Z score goes with more inhibition). Details: timepoint 72 hour.
Format: functional, Erythrocyte

| Compound | % Inhibition [%] | Z score |
| --- | --- | --- |
| COCCn1nnnc1[C@@H]1CN(CC(=O)NC2CCCCC2)CCO1 | -16 | 2.87 |
| CCOc1cc2c(cc1OCC)[C@@H]1CC(=O)N(c3ccc(C)c(C)c3)C(=O)N1CC2 | 4 | -0.67 |
| CNS(=O)(=O)c1ccccc1CN[C@@H](C)c1ccc(C)s1 | -8 | 0.92 |
| C#CCN(C[C@H]1CCCO1)C(=O)Nc1ccn(CCOC)n1 | -6 | 0.93 |
| CN(CCS(C)(=O)=O)C(=O)[C@@H]1CCCc2sccc21 | -5 | 0.59 |
| CC(C)N1CCCCC1C(=O)NC1CC=CCC1 (stereo not drawn) | -1 | 0.17 |
| CCC[C@H](C)c1c(-c2ccccc2)ncn1C1CCN(S(C)(=O)=O)CC1 | -20 | 2.9 |
| CN1CCN2CCN(C(=O)CCOc3ccccc3)C[C@H]2C1=O | -2 | 0.32 |
| Clc1cccc(OC2CN(C[C@@H]3CCCN4CCCC[C@H]34)C2)c1 | 3 | -0.42 |
| CN(CC(=O)N1CCc2ccccc21)c1cccc(C#N)c1 | 0 | -0.01 |
| Cc1nc(N2CCC[C@H](c3cc[nH]n3)C2)c2cnn(C)c2n1 | -19 | 2.09 |
| COc1ccc(-c2nc(N3CCC(Cc4ccccc4)CC3)nc3nn(C)c(N)c23)c(F)c1 | 11 | -1.36 |
| Cc1sc(CC(=O)N2CC(C)(C)[C@H]2c2cccnc2)nc1C(C)C | -14 | 1.9 |
| C[C@H]1COCCN1C(=O)CCc1nc2ccccc2s1 | -8 | 1.26 |
| Cc1nc(-c2cn([C@H]3CCCN(C(=O)c4cccc(N(C)C)c4)C3)nn2)no1 | -7 | 0.85 |
| Cc1cc(CN(C)C(=O)NCc2ccncc2)no1 | -15 | 1.76 |
| COc1cccc(C(=O)NCc2cncc(-c3ccsc3)c2)c1 | -14 | 2.11 |
| Cc1onc(C(=O)NCCc2ccc(Cl)cc2)c1CN1CCOCC1 | -12 | 1.26 |
| Cc1nnc(CN(CC(C)C)c2cccc(O)c2)o1 | -7 | 1.07 |
| COC(=O)c1ccc(NC(=O)Cn2c(=O)n(Cc3ccc(F)cc3)c(=O)c3nn(C)cc32)cc1 | -7 | 1.01 |
| CN(C)C(=O)C[C@H]1CCc2nn(Cc3cccnc3)c(=O)n2CC1 | 6 | -0.9 |

| Compound | % Inhibition [%] | Z score |
| --- | --- | --- |
| Cn1ccnc1[C@@H](O)c1cc2n(n1)CCN(c1ccc(C#N)cn1)C2 | -22 | 2.19 |
| CC1CN(S(=O)(=O)c2ccc3c(c2)CCC3)CC(C)O1 (stereo not drawn) | -2 | 0.38 |
| O=C(c1ccc2nsnc2c1)N1CC(N2C(=O)C3CC=CCC3C2=O)C1 (stereo not drawn) | -3 | 0.29 |
| COCCN1CCC[C@H](NC(=O)C(F)(F)C2(O)CCC2)C1 | -5 | 0.66 |
| CC1(C(=O)N2CCC[C@]3(CNC(=O)C3)C2)CCCCCC1 | -6 | 0.68 |
| COCCN1C(=O)c2ccc(-c3nc4ccccc4o3)cc2C1=O | -5 | 0.77 |
| CC(C)C[C@@H](CNCc1ccc(F)cc1F)N(C)C | -6 | 0.7 |
| CCCCNC(=O)Cn1c(C)c(Cc2ccccc2)c(=O)n2nc(-c3ccc(C)cc3)nc12 | 0 | 0.01 |
| COc1cccc(NC(=O)c2nnn(-c3ccc(F)c(C)c3)c2-c2cccnc2)c1 | -9 | 1.59 |
| COc1ccc2c(C)c(C(=O)N3CCC4(CCCC4)C3)oc2c1 | -7 | 0.69 |
| COc1ccc(CCN2C(=O)N[C@@H](CC(=O)N3CCN(c4ccccn4)CC3)C2=O)cc1 | 2 | -0.28 |
| CN1C(=O)c2cc(C(=O)N3CCCCCC3)nn2C[C@@]1(C)C(=O)NC1CCCCCC1 | 12 | -1.34 |
| CCOc1cc(C(=O)NC2CC(C)(F)C2)ccn1 (stereo not drawn) | -10 | 1.73 |
| CC(C)CCN1CC[C@@H](NC2CCCCC2)CCC1=O | -4 | 0.55 |
| O=C(NCCCNC(=O)c1ccc(-c2ccc(Cl)c(Cl)c2)o1)c1cnccn1 | -8 | 0.85 |
| Cc1ccc(NC(=O)C(=O)Nc2ccc3nccnc3c2)c(C)c1 | 2 | -0.34 |
| Cn1cc([C@H]2N(C(=O)CCc3ccc(C(N)=O)cc3)CC2(C)C)cn1 | -1 | 0.13 |
| CC(C)C[C@H](CCO)CNC(=O)c1cc(F)c(F)c(F)c1 | -11 | 1.26 |
| Cc1cc(C(=O)N(CC2CCN(Cc3ccccc3F)CC2)C[C@H]2CCCO2)c(C)o1 | -15 | 2.62 |
| CC1CC(Nc2cccc(S(=O)(=O)N3CCC(O)CC3)c2)C(C)O1 (stereo not drawn) | -13 | 2.34 |
| CCN(CC(=O)N1c2ccccc2NC(=O)C[C@@H]1C)Cc1ccc(Cl)s1 | -4 | 0.39 |

| Compound | % Inhibition [%] | Z score |
| --- | --- | --- |
| CCOC(=O)c1c(S(=O)(=O)NCC(=O)Nc2cc(C)cc(C)c2)c(C)n(CC)c1C | -18 | 1.62 |
| C[C@H](NC1CCN(c2nc3ccccc3o2)CC1)c1nnc(N)s1 | -2 | 0.26 |
| O=C(C[C@H]1COCCN1C(=O)c1ccc(Cl)cn1)c1ccco1 | -13 | 1.71 |
| O=C1COc2c(cccc2NC(=O)c2cccs2)N1 | 2 | -0.19 |
| CC1=NN(c2ccc(C)cc2)C(=O)C12Cc1ccccc1N1CCCCC12 (stereo not drawn) | -32 | 3.81 |
| C[C@@]12CCCN1C(=O)N(c1cccc3[nH]ccc13)C2=O | 2 | -0.45 |
| O=S(=O)(Nc1nc2ccccc2nc1Nc1ccc2cn[nH]c2c1)c1cc(F)ccc1F | -10 | 1.84 |
| CCn1nc(C)c(CNS(=O)(=O)c2cccs2)c1C | -4 | 0.81 |
| CC1CN(S(=O)(=O)N2CCCC2CN)C(C)CO1 (stereo not drawn) | -1 | 0.13 |
| O=C(Nc1cccc(S(=O)(=O)N2CCOCC2)c1)c1cc[n+]([O-])cc1 | 0 | 0.01 |
| CC1(C)CO[C@@H](CCC(=O)N2CCC(CN3CCNC3=O)CC2)C1 | -3 | 0.54 |
| CC(C)(C)c1nnc(NCc2cccc3cn[nH]c23)o1 | -13 | 1.37 |
| CCc1cc(C(=O)Nc2ccon2)cs1 | -16 | 2.03 |
| CCC(C)(NC(=O)C1CC12CCOCC2)c1ccccc1 (stereo not drawn) | 0 | 0.03 |
| Cc1cnccc1-c1cccc(C(=O)N2CCC2)c1 | 2 | -0.18 |
| Cc1nc(-c2cccc(C(=O)NC[C@H]3COCCO3)c2)sc1C | 7 | -0.9 |
| O=S(=O)(N[C@H]1CO[C@H]2[C@@H]1OC[C@@H]2n1cc(-c2ccccn2)nn1)c1cccs1 | -11 | 1.53 |
| c1cncc(Cn2c3c(c4ccccc42)CNCCC3)c1 | 3 | -0.43 |
| COc1ccc(OC)c2c1cc(C(=O)Nc1nccs1)n2C | -9 | 1.1 |
| CC(C)CN(Cc1ccccn1)Cc1c[nH]cn1 | -22 | 2.03 |
| CCOc1ccc(-c2ccc3c(c2)C(=O)NCC3)cc1OCC | -8 | 1.47 |

| Compound | % Inhibition [%] | Z score |
| --- | --- | --- |
| O=C(O)C12CCC(C(=O)Nc3ccccc3)(CC1)C2 | -12 | 1.17 |
| O=C(Nc1cc(F)ccc1OC(F)F)NC1CCOC(C2CC2)C1 (stereo not drawn) | 9 | -0.91 |
| COc1ccc(C(=O)Nc2nc3n(n2)[C@H](c2ccccc2)CC(=O)N3)cc1 | -12 | 1.05 |
| CC[C@H]1c2cccn2CCN1C(=O)c1nc2n(n1)CCCN2 | 0 | 0.02 |
| COC(=O)c1ccc(N2C[C@@H]3OC(=O)N(Cc4ccccc4OC)[C@@H]3C2)nc1 | 11 | -1.62 |
| CCN1CCN(C2CCN(c3nc4nonc4nc3N3CCCCCC3)CC2)CC1 | -3 | 0.34 |
| O=C(c1ccc(CN2C(=O)CCn3nccc32)cc1)N1CCN(c2cccc(C(F)(F)F)c2)CC1 | 3 | -0.35 |
| Cc1nc(NC(=O)[C@H]2CC(=O)N(C(C)C)C2)sc1-c1ccccn1 | -10 | 0.91 |
| CCc1ncnc(N[C@H]2CC=CC[C@@H]2C(N)=O)c1F | -13 | 1.62 |
| Cc1cnc(CN(Cc2c(C)nn(C)c2C)CC(C)C)cn1 | -10 | 1.4 |
| OC[C@@H]1[C@@H](Cc2ccnc(-c3cccnc3)n2)[C@H](NCc2ccc(C(F)(F)F)cc2)C[C@H]1O | -8 | 1.18 |
| CCN(CC)C(=O)[C@@H](NC(=O)c1ccccc1)C1CCN(S(=O)(=O)c2ccc(Cl)cc2)CC1 | -7 | 0.7 |
| CCn1nc(N)c(Br)c1C | 34 | -3.86 |
| CC1CCN(c2nc3c(c(Oc4ccc(F)c(F)c4)n2)CN(C(=O)NCc2ccccc2)CC3)CC1 | -26 | 2.56 |
| Cc1cc(C(=O)N2CCc3[nH]cnc3C2)c2c(C)noc2n1 | -3 | 0.5 |
| O=S(=O)(c1cccc(-c2nnc(-c3ccccc3Br)o2)c1)N1CCOCC1 | -9 | 1.58 |
| CN(C)c1nccc(CNC(=O)c2ccccc2)n1 | -4 | 0.73 |
| CCN(CC(=O)Nc1c(F)cccc1F)c1cnc2ccccc2n1 | -9 | 1.25 |
| CCN1CCCN(C(=O)c2cc(F)ccc2F)CC1=O | -4 | 0.8 |
| COc1ccc(NC(=O)COc2ccc3c(c2)OCCO3)cc1OC | -26 | 3.11 |
| Cc1cc(CNC(=O)[C@@H]2CC[C@@H]2C(=O)O)ccc1-c1ccccc1 | 1 | -0.2 |

From ChEMBL document CHEMBL4888484, “Replenishing the malaria drug discovery pipeline: Screening and hit evaluation of the MMV Hit Generation Library 1 (HGL1) against asexual blood stage Plasmodium falciparum ,using a nano luciferase reporter read-out” (2022)
